Patent publication US9023789B2, “Amylin analogs and pharmaceutical compositions thereof” (Novo Nordisk A/S, priority 2012, dated 2015)
At least one read-out could not be matched to a standard name with certainty. Numbered stars: 1 amine (or outer) side, 2 acyl side, 3 side chain; on linkers, the order of the positions; unused ones are H or OH. Bridge positions count the residues as written; N and C are the ends. Side chains are listed from the residue outwards. Peptide text beside a SMILES is read from it. * marks the point of attachment. C20 diacid = O=C(O)CCCCCCCCCCCCCCCCCCC(=O)*; γGlu = O=C(O)[C@H](CCC(=O)[*:2])N[*:1]

test: ASSAY (III) ThT fibrillation assay for physical stability; assay type: physicochemical
Method in brief: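 Physical stability scored by ThT fluorescence (444 nm excitation, 485 nm emission) tracked every 20 min during 37 °C incubation with 960 rpm shaking, ThT at 1 μM final. Values are replicate means with SD at chosen times; HPLC against pramlintide standard gives initial and post-assay soluble concentrations.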

Point of comparison: `CC[C@H](C)[C@H](NC(=O)[C@H](C)NC(=O)CNC(=O)[C@H](Cc1ccccc1)NC(=O)[C@H](CC(N)=O)NC(=O)[C@@H]1CCCN1C(=O)[C@H](CO)NC(=O)[C@H](CO)NC(=O)[C@H](Cc1c[nH]cn1)NC(=O)[C@H](CCCNC(=N)N)NC(=O)[C@H](CC(C)C)NC(=O)[C@H](Cc1ccccc1)NC(=O)[C@H](CCC(=O)O)NC(=O)[C@H](C)NC(=O)[C@H](CC(C)C)NC(=O)[C@H](CCCNC(=N)N)NC(=O)[C@H](CCC(N)=O)NC(=O)[C@@H](NC(=O)[C@H](C)NC(=O)[C@@H]1CSSC[C@H](NC(=O)[C@@H](N)CCCCNC(=O)CC[C@H](NC(=O)CCCCCCCCCCCCCCCCCCC(=O)O)C(=O)O)C(=O)N[C@@H](CC(N)=O)C(=O)N[C@@H]([C@@H](C)O)C(=O)N[C@@H](C)C(=O)N[C@@H]([C@@H](C)O)C(=O)N1)[C@@H](C)O)C(=O)N1CCC[C@H]1C(=O)N[C@@H](CO)C(=O)N[C@@H](CO)C(=O)N[C@H](C(=O)N[C@@H](CC(N)=O)C(=O)N[C@H](C(=O)NCC(=O)N[C@@H](Cc1c[nH]cn1)C(=O)N[C@@H](CCC(=O)O)C(=O)N[C@H](C(=O)N[C@@H](Cc1ccc(O)cc1)C(N)=O)[C@@H](C)O)C(C)C)[C@@H](C)O` [Example 107] (H-K([γGlu-C20 diacid])CNTATCATQRLAEFLRHSSPNFGAIPSSTNVGHETY-NH2; disulfide 2-7 (inferred)), “ThT pH 4.0 recovery (%)” value 88%. Against it:
- CC[C@H](C)[C@H](NC(=O)[C@H](C)NC(=O)CNC(=O)[C@H](Cc1ccccc1)NC(=O)[C@H](CC(N)=O)NC(=O)[C@@H]1CCCN1C(=O)[C@H](CO)NC(=O)[C@H](CO)NC(=O)[C@H](Cc1c[nH]cn1)NC(=O)[C@H](CCCNC(=N)N)NC(=O)[C@H](CC(C)C)NC(=O)[C@H](Cc1ccccc1)NC(=O)[C@H](C)NC(=O)[C@H](C)NC(=O)[C@H](CC(C)C)NC(=O)[C@H](CCCNC(=N)N)NC(=O)[C@H](CCC(N)=O)NC(=O)[C@@H](NC(=O)[C@H](C)NC(=O)[C@@H]1CSSC[C@H](NC(=O)[C@H](CCCNC(=N)N)NC(=O)CNC(=O)CC[C@H](NC(=O)CCCCCCCCCCCCCCCCCCC(=O)O)C(=O)O)C(=O)N[C@@H](CC(N)=O)C(=O)N[C@@H]([C@@H](C)O)C(=O)N[C@@H](C)C(=O)N[C@@H]([C@@H](C)O)C(=O)N1)[C@@H](C)O)C(=O)N1CCC[C@H]1C(=O)N[C@@H](CO)C(=O)N[C@@H](CO)C(=O)N[C@H](C(=O)N[C@@H](CC(N)=O)C(=O)N[C@H](C(=O)NCC(=O)N[C@@H](Cc1c[nH]cn1)C(=O)N[C@@H](CC(N)=O)C(=O)N[C@H](C(=O)N[C@@H](Cc1ccc(O)cc1)C(N)=O)[C@@H](C)O)C(C)C)[C@@H](C)O [Example 101] ({C20 diacid-γGlu}-GRCNTATCATQRLAAFLRHSSPNFGAIPSSTNVGHNTY-NH2; disulfide 3-8) — lower, 85%
- CC[C@H](C)[C@H](NC(=O)[C@H](C)NC(=O)CNC(=O)[C@H](Cc1ccccc1)NC(=O)[C@H](CC(N)=O)NC(=O)[C@@H]1CCCN1C(=O)[C@H](CO)NC(=O)[C@H](CO)NC(=O)[C@H](Cc1c[nH]cn1)NC(=O)[C@H](CCCNC(=N)N)NC(=O)[C@H](CC(C)C)NC(=O)[C@H](Cc1ccccc1)NC(=O)[C@H](Cc1c[nH]cn1)NC(=O)[C@H](C)NC(=O)[C@H](CC(C)C)NC(=O)[C@H](CCCNC(=N)N)NC(=O)[C@H](CCC(N)=O)NC(=O)[C@@H](NC(=O)[C@H](C)NC(=O)[C@@H]1CSSC[C@H](NC(=O)[C@H](CCCNC(=N)N)NC(=O)CNC(=O)CC[C@H](NC(=O)CCCCCCCCCCCCCCCCCCC(=O)O)C(=O)O)C(=O)N[C@@H](CC(N)=O)C(=O)N[C@@H]([C@@H](C)O)C(=O)N[C@@H](C)C(=O)N[C@@H]([C@@H](C)O)C(=O)N1)[C@@H](C)O)C(=O)N1CCC[C@H]1C(=O)N[C@@H](CO)C(=O)N[C@@H](CO)C(=O)N[C@H](C(=O)N[C@@H](CC(N)=O)C(=O)N[C@H](C(=O)NCC(=O)N1CCC[C@H]1C(=O)N[C@@H](CC(N)=O)C(=O)N[C@H](C(=O)N[C@@H](Cc1ccc(O)cc1)C(N)=O)[C@@H](C)O)C(C)C)[C@@H](C)O [Example 102] ({C20 diacid-γGlu}-GRCNTATCATQRLAHFLRHSSPNFGAIPSSTNVGPNTY-NH2; disulfide 3-8 (inferred)) — lower, 77%
- CC[C@H](C)[C@H](NC(=O)[C@H](C)NC(=O)CNC(=O)[C@H](Cc1ccccc1)NC(=O)[C@H](CC(N)=O)NC(=O)[C@@H]1CCCN1C(=O)[C@H](CO)NC(=O)[C@H](CO)NC(=O)[C@H](Cc1c[nH]cn1)NC(=O)[C@H](CCCNC(=N)N)NC(=O)[C@H](CC(C)C)NC(=O)[C@H](Cc1ccccc1)NC(=O)[C@H](CCC(=O)O)NC(=O)[C@H](C)NC(=O)[C@H](CC(C)C)NC(=O)[C@H](CCCNC(=N)N)NC(=O)[C@H](CCC(N)=O)NC(=O)[C@@H](NC(=O)[C@H](C)NC(=O)[C@@H]1CSSC[C@H](NC(=O)[C@@H](N)CCCCNC(=O)CC[C@H](NC(=O)CC[C@H](NC(=O)CCCCCCCCCCCCCCCCCCC(=O)O)C(=O)O)C(=O)O)C(=O)N[C@@H](CC(N)=O)C(=O)N[C@@H]([C@@H](C)O)C(=O)N[C@@H](C)C(=O)N[C@@H]([C@@H](C)O)C(=O)N1)[C@@H](C)O)C(=O)N1CCC[C@H]1C(=O)N[C@@H](CO)C(=O)N[C@@H](CO)C(=O)N[C@H](C(=O)N[C@@H](CC(N)=O)C(=O)N[C@H](C(=O)NCC(=O)N[C@@H](Cc1c[nH]cn1)C(=O)N[C@@H](CCC(=O)O)C(=O)N[C@H](C(=O)N[C@@H](Cc1ccc(O)cc1)C(N)=O)[C@@H](C)O)C(C)C)[C@@H](C)O [Example 104] (H-K([γGlu-γGlu-C20 diacid])CNTATCATQRLAEFLRHSSPNFGAIPSSTNVGHETY-NH2; disulfide 2-7; N-terminus assumed) — higher, 97%
- CC[C@H](C)[C@H](NC(=O)[C@H](C)NC(=O)CNC(=O)[C@H](Cc1ccccc1)NC(=O)[C@H](CC(N)=O)NC(=O)[C@@H]1CCCN1C(=O)[C@H](CO)NC(=O)[C@H](CO)NC(=O)[C@H](Cc1c[nH]cn1)NC(=O)[C@H](CCCNC(=N)N)NC(=O)[C@H](CC(C)C)NC(=O)[C@H](Cc1ccccc1)NC(=O)[C@H](CCC(=O)O)NC(=O)[C@H](C)NC(=O)[C@H](CC(C)C)NC(=O)[C@H](CCCNC(=N)N)NC(=O)[C@H](CCC(N)=O)NC(=O)[C@@H](NC(=O)[C@H](C)NC(=O)[C@@H]1CSSC[C@H](NC(=O)[C@@H](N)CCCCNC(=O)CC[C@H](NC(=O)CC[C@H](NC(=O)CCCCCCCCCCCCCCCCCCC(=O)O)C(=O)O)C(=O)O)C(=O)N[C@@H](CC(N)=O)C(=O)N[C@@H]([C@@H](C)O)C(=O)N[C@@H](C)C(=O)N[C@@H]([C@@H](C)O)C(=O)N1)[C@@H](C)O)C(=O)N1CCC[C@H]1C(=O)N[C@@H](CO)C(=O)N[C@@H](CO)C(=O)N[C@H](C(=O)N[C@@H](CC(N)=O)C(=O)N[C@H](C(=O)NCC(=O)N[C@@H](CCCNC(=N)N)C(=O)N[C@@H](CCC(=O)O)C(=O)N[C@H](C(=O)N[C@@H](Cc1ccc(O)cc1)C(N)=O)[C@@H](C)O)C(C)C)[C@@H](C)O [Example 105] (H-K([γGlu-γGlu-C20 diacid])CNTATCATQRLAEFLRHSSPNFGAIPSSTNVGRETY-NH2; disulfide 2-7; N-terminus assumed) — higher, 90%
- CC[C@H](C)[C@H](NC(=O)[C@H](C)NC(=O)CNC(=O)[C@H](Cc1ccccc1)NC(=O)[C@H](CC(N)=O)NC(=O)[C@@H]1CCCN1C(=O)[C@H](CO)NC(=O)[C@H](CO)NC(=O)[C@H](Cc1c[nH]cn1)NC(=O)[C@H](CCCNC(=N)N)NC(=O)[C@H](CC(C)C)NC(=O)[C@H](Cc1ccccc1)NC(=O)[C@H](CCC(=O)O)NC(=O)[C@H](C)NC(=O)[C@H](CC(C)C)NC(=O)[C@H](CCCNC(=N)N)NC(=O)[C@H](CCC(N)=O)NC(=O)[C@@H](NC(=O)[C@H](C)NC(=O)[C@@H]1CSSC[C@H](NC(=O)[C@@H](N)CCCCNC(=O)CC[C@H](NC(=O)CC[C@H](NC(=O)CCCCCCCCCCCCCCCCCCC(=O)O)C(=O)O)C(=O)O)C(=O)N[C@@H](CC(N)=O)C(=O)N[C@@H]([C@@H](C)O)C(=O)N[C@@H](C)C(=O)N[C@@H]([C@@H](C)O)C(=O)N1)[C@@H](C)O)C(=O)N1CCC[C@H]1C(=O)N[C@@H](CO)C(=O)N[C@@H](CO)C(=O)N[C@H](C(=O)N[C@@H](CC(N)=O)C(=O)N[C@H](C(=O)NCC(=O)N1CCC[C@H]1C(=O)N[C@@H](CCC(=O)O)C(=O)N[C@H](C(=O)N[C@@H](Cc1ccc(O)cc1)C(N)=O)[C@@H](C)O)C(C)C)[C@@H](C)O [Example 106] (H-K([γGlu-γGlu-C20 diacid])CNTATCATQRLAEFLRHSSPNFGAIPSSTNVGPETY-NH2; disulfide 2-7; N-terminus assumed) — lower, 56%
- CC[C@H](C)[C@H](NC(=O)[C@H](C)NC(=O)CNC(=O)[C@H](Cc1ccccc1)NC(=O)[C@H](CC(N)=O)NC(=O)[C@@H]1CCCN1C(=O)[C@H](CO)NC(=O)[C@H](CO)NC(=O)[C@H](Cc1c[nH]cn1)NC(=O)[C@H](CCCNC(=N)N)NC(=O)[C@H](CC(C)C)NC(=O)[C@H](Cc1ccccc1)NC(=O)[C@H](CCC(=O)O)NC(=O)[C@H](C)NC(=O)[C@H](CC(C)C)NC(=O)[C@H](CCCNC(=N)N)NC(=O)[C@H](CCC(N)=O)NC(=O)[C@@H](NC(=O)[C@H](C)NC(=O)[C@@H]1CSSC[C@H](NC(=O)[C@@H](N)CCCCNC(=O)CC[C@H](NC(=O)CCCCCCCCCCCCCCCCCCC(=O)O)C(=O)O)C(=O)N[C@@H](CC(N)=O)C(=O)N[C@@H]([C@@H](C)O)C(=O)N[C@@H](C)C(=O)N[C@@H]([C@@H](C)O)C(=O)N1)[C@@H](C)O)C(=O)N1CCC[C@H]1C(=O)N[C@@H](CO)C(=O)N[C@@H](CO)C(=O)N[C@H](C(=O)N[C@@H](CC(N)=O)C(=O)N[C@H](C(=O)NCC(=O)N[C@@H](CCCNC(=N)N)C(=O)N[C@@H](CCC(=O)O)C(=O)N[C@H](C(=O)N[C@@H](Cc1ccc(O)cc1)C(N)=O)[C@@H](C)O)C(C)C)[C@@H](C)O [Example 108] (H-K([γGlu-C20 diacid])CNTATCATQRLAEFLRHSSPNFGAIPSSTNVGRETY-NH2; disulfide 2-7; N-terminus assumed) — lower, 87%
